Experimental data taken from PubChem BioAssay (NCI).
“And” between values parts separate entries of the source, which are not always exact repeats. Equal values may be shown once.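 Interpolation was linear, between the two tested concentrations surrounding the appropriate level; five concentrations were tested over 48 hours in 96-well plates. Abbreviation: GI50, concentration required for 50% inhibition of growth. Definition used: TGI = concentration required for complete inhibition of growth.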

These compounds were tested on NCI-H322M lung (assay: NCI-60 cell line screen, 48 h).

Row | Structure (SMILES) | TGI | GI50
1 | CCOC(=O)C(Cc1cccn1C(=O)OC(C)(C)C)[N+](=O)[O-] (stereo unspecified) | > 100 µM | –
2 | CC/C=C(\C(=C/CC)[N+](=O)[O-])[N+](=O)[O-] | > 100 µM | –
3 | COc1cc2c(cc1OC)C1(COc3cc(O)c(O)c(O)c3C1=O)C2 (stereo unspecified) | > 50 µM | –
4 | COc1cc(Nc2nc3ccccc3cc2C(=O)Nc2ccc(F)c(F)c2)cc(OC)c1OC | > 100 µM | 3.67 µM
5 | Cc1c2c(OCCN3CCCCC3)nn(C)c(=O)c2c(C)n1-c1ccccc1 | > 100 µM | –
6 | Cc1csc(/N=C\c2c(O)c3ccccc3oc2=O)n1 | > 100 µM | –
7 | COc1cc(CNc2ccccc2C(=O)N2CCN(C(=O)c3cc(-c4cc(OC)c(OC)c(OC)c4)n4nc(-c5ccccc5)cc4n3)CC2)cc(OC)c1OC | > 100 µM | 5.65 µM
8 | Cc1c(C(=O)/C=C/c2ccccc2O)c(=O)n(-c2ccccc2)n1C | > 100 µM | –
9 | CCN(CC)CCNC(=O)c1cn2c(ccc3sc4ccccc4c(=O)c32)n1 | 19.4 µM | –
10 | CCCCON1C[C@H](OC(C)=O)C(OC(C)=O)[C@H](OC(C)=O)C1 (stereo partly specified) | > 100 µM | –
11 | COc1ccc(N2C=Nn3c(nc4sc5c(c4c3=O)CCCC5)C2)cc1 | > 100 µM | –
12 | Cc1ccc(/C=N/Nc2ccc3ccccc3n2)s1 | 34.5 µM | –
13 | C=C1C(=O)O[C@@H]2C=C(C)C3=CC(=O)[C@](C)(C[C@H](OC(=O)/C(C)=C\C)[C@@H]12)O3 | 11.3 µM | –
14 | Cc1cccc(C)c1NC(=O)Nc1ccc(S(N)(=O)=O)cc1 | > 100 µM | –
15 | C=C1CCC2C(C)(COC(=O)CC)C(OC(=O)CC)CCC2(C)C1C/C=C1/C(=O)OCC1OC(=O)CC (stereo unspecified) | 19.2 µM | 6.65 µM
16 | O=C(O)CC1NCc2cc3ccccc3nc21 (stereo unspecified) | > 100 µM | –
17 | FC(F)(F)C1(Br)C(c2ccccc2)=C1c1ccccc1 | 99.2 µM | –
18 | CO[C@H](C(=O)[C@@H](O)[C@@H](C)O)[C@@H]1Cc2cc3cc(OC4CC(OC5CC(O)C(O)C(C)O5)C(O)C(C)O4)c(C)c(O)c3c(O)c2C(=O)[C@H]1OC1CC(OC2CC(OC3CC(C)(O)C(O)C(C)O3)C(O)C(C)O2)C(O)C(C)O1 (stereo partly specified) | – | 0.028 µg/mL and 0.018 µg/mL
19 | CC(C)(C)[Si](C)(C)OC1[C@@H](O[Si](C)(C)C(C)(C)C)[C@@H](CNC(=O)NC(=O)CCl)O[C@H]1n1cnc2c(NC(=O)Nc3ccccc3)ncnc21 (stereo partly specified) | 47.1 µM | 17.4 µM
20 | COc1ccc2cc(CN3CCC(C4CCNCC4)CC3)ccc2c1 | 5.37 µM | –
21 | O=C(O)C(Cl)(c1ccccc1)c1ccccc1 | > 100 µM | –
22 | COc1ccc(OC)c(-c2cc(-c3ccc(Cl)cc3)nn2-c2ccc(S(=O)(=O)NC(C)=O)cc2)c1 | 41.2 µM | 18.8 µM

Row | Structure (SMILES) | TGI | GI50
23 | CCOC(=O)/C(C#N)=C/c1ccnc2ccccc12 | > 100 µM | –
24 | CC[C@H]1C=CCC[C@@]2(C[C@@H]3CC[C@H]4[C@@H](C(=O)OCCCCCCCCCCCCCCCC(=O)N(CCCN)C[C@@H](O)CCN)[C@@]5(CCC[C@@H](C)O5)NC(=[N+]34)N2)O1 | 3.09 µM | –
25 | Cc1cn([C@@H]2O[C@H](CO[Si](C)(C)C(C)(C)C)[C@]3(O[C@H]3C(=O)NN)[C@H]2O[Si](C)(C)C(C)(C)C)c(=O)[nH]c1=O | 25 µM | –
26 | COc1cccc(C2c3cc4c(cc3OC(N3CCCC3)C2C)OCO4)c1O (stereo unspecified) | > 80 µM | –
27 | Cc1noc(NC2=CC(=O)C(=O)c3ccccc32)c1C | > 100 µM | –
28 | Clc1ccc(C2Nc3ccccc3C3=NCCN32)cc1 (stereo unspecified) | 44.8 µM | –
29 | Nc1nc2c(c(=O)[nH]1)C(c1ccc(Cl)cc1)C=C(c1ccccc1)N2 (stereo unspecified) | > 100 µM | –
30 | CN1C(=O)N[C@H]2[C@@H]3NC(=O)c4ccc(Br)n4[C@@H]3C[C@]21O | 4.78 µM | 0.388 µM
31 | C[N+]1(CCCl)CC[N+](C)(CCCl)CC1 (stereo unspecified) | > 100 µM | –
32 | Oc1ccc(Cl)cc1CN1CCN(Cc2cc(Cl)ccc2O)C1 | 6.99 µM | –
33 | CC(=O)OCC1OC(Oc2cc(C)c(O)cc2C/C=C(\C)CC/C=C(\C)CC(=O)CC(C)C)C(O)C(OC(C)=O)C1OC(C)=O (stereo unspecified) | 28.6 µM | –
34 | CC[N+]1(C)CCC(O)(c2ccc(OC)cc2)C(C(=O)c2ccc(OC)cc2)C1 (stereo unspecified) | 30.4 µM | –
35 | O=c1c2cccc3cccc(c4n1CCN=4)c32 | > 100 µM | –
36 | CC1C2(C)OC(=N)C(C#N)(C(c3cccc([N+](=O)[O-])c3)O2)C1(C#N)C#N (stereo unspecified) | > 100 µM | –
37 | CC1=Nc2sc3c(c2C2=NCCN12)CCCC3 | > 100 µM | –
38 | O=C(N/N=C1/C(=O)c2c3ccccc3cc3cccc1c23)c1ccccc1 | > 100 µM | –
39 | Nc1nc(N)c2cc(NCc3ccc(Cl)c(Cl)c3)ccc2n1 | 2.43 µM | 1.04 µM
40 | O=c1c(Cl)c(Cl)c(=O)c2sc3cc(Cl)ccc3[nH]c1=2 | > 100 µM | –
41 | CCn1c(-c2cc3ccccc3cc2O)nn(C(=O)c2c(Cl)cccc2Cl)c1=S | > 50 µM | > 50 µM
42 | CC1=NN(C(=O)c2ccc([N+](=O)[O-])cc2)C(=O)C1N=Nc1ccccc1C(=O)O (stereo unspecified) | > 100 µM | –
43 | C=C1C(=O)O[C@H]2[C@@H](O)[C@H](C)CCC[C@]3(C)O[C@H]3CC[C@@]3(C)O[C@@H]3C[C@@H]12 | 12 µM | –
44 | CN/N=C(\C)C(CN(C)C)C(c1ccccc1)c1c(O)c2ccccc2oc1=O (stereo unspecified) | > 100 µM | –

Row | Structure (SMILES) | TGI | GI50
45 | O=C(Nc1cccc(O)c1)C(=O)C(C(=O)c1ccc(Cl)c(Cl)c1)C1OC(=O)c2ccccc21 (stereo unspecified) | 41.5 µM | –
46 | O=c1c(=O)c2c(Br)sc(Br)c2c1=O | > 100 µM | –
47 | O=C(CNc1ccccc1[N+](=O)[O-])Nn1c(-c2ccccc2)nc2ccccc2c1=O | 41 µM | –
48 | COC(=O)C1[C@H](c2cc(OC)c(OC)c(OC)c2)OC(=O)C1(C(=O)OC)C(=O)c1ccc2c(c1)OCO2 (stereo partly specified) | > 100 µM | –
49 | N#C/C(=C1\SC(N=Nc2ccccc2)C(=O)N1c1ccccc1)c1nc2ccccc2[nH]1 (stereo unspecified) | > 100 µM | –
50 | Cc1cc(=O)oc2c(C)c(OCCCOc3ccc4c(C)cc(=O)oc4c3C)ccc12 | > 100 µM | –
51 | COC(=O)N1CC2C3C4CC(C(c5ccccc5)=C4c4ccccc4)C3C21 (stereo unspecified) | 31.3 µM | –
52 | COc1ccc(OC)c(NS(=O)(=O)c2ccc3nc(C)n(NS(=O)(=O)c4cc(OC)ccc4OC)c(=O)c3c2)c1 | > 100 µM | –
53 | CC1(CCC(=O)OC2CCCCC2)OCCO1 | > 100 µM | –
54 | Cc1nc(N2CCC3(CC2)CO[C@@H](C)[C@H]3N)c(CO)nc1Sc1ccnc(N)c1Cl | > 100 µM | 0.376 µM
55 | O=C(OCc1ncc(-c2ccc(C(F)(F)F)cc2)c(NC2CCCCCC2)n1)c1c(F)c(F)c(F)c(F)c1F | 32 µM | 17.3 µM
56 | CCCCCCCCCCCCCCCCCC(=O)OCC(COC(=O)CCCN)OC(=O)CCCN (stereo unspecified) | 31.2 µM | –
57 | O=C1c2cc(Cl)ccc2NC(=NCCCl)C2CSCN12 (stereo unspecified) | > 100 µM | –
58 | Cc1ccc(N(CC(=O)Nc2ccc(S(=O)(=O)N3CCC(N4CCCC4)CC3)cc2)S(=O)(=O)c2ccc(Cl)cc2)cc1 | 4.89 µM | 2.07 µM
59 | CCOC(=N)CC(=O)c1ccccc1 | > 100 µM | –
60 | O=[N+]([O-])CCc1cccc([N+](=O)[O-])c1 | > 100 µM | –
61 | Cc1cc(CC(C)CC(C)(C)C)n(O)c(=O)c1 (stereo unspecified) (tested in a mixture with another compound) | 42.2 µM | 2.33 µM
62 | CNC(=O)Cc1nc(-c2cccc(NS(=O)(=O)c3c(F)cccc3F)c2F)c(-c2ccnc(Nc3ccccc3)n2)s1 | > 50 µM | 12.9 µM
63 | C[N+](C)(C)CC(=O)N/N=C(\C(=O)NC1=C(Cl)C(=O)c2ccccc2C1=O)C(C#N)c1csc(-c2ccc([N+](=O)[O-])cc2)n1 (stereo unspecified) | > 100 µM | –
64 | COc1cccc(NC(=O)c2sc3nc4c(cc3c2N)C(=O)CCC4)c1 | > 100 µM | 3.27 µM
65 | Cc1cc(N2CCSCC2)nc(NC2CCCC(Nc3ccnc4cc(Cl)ccc34)C2)n1 (stereo unspecified) | 4.84 µM | 1.96 µM
66 | CCOP(=O)(OCC)C(N)c1ccc(Cl)cc1 (stereo unspecified) | > 100 µM | –
